Values belong to the binder of their own block, whether it stands above or below them.
Target: T1, CD20 on Raji or Daudi cells (UniProt P11836 1-297, limits assumed)
T1 construct: whole, on cells
T1 sequence (looked up): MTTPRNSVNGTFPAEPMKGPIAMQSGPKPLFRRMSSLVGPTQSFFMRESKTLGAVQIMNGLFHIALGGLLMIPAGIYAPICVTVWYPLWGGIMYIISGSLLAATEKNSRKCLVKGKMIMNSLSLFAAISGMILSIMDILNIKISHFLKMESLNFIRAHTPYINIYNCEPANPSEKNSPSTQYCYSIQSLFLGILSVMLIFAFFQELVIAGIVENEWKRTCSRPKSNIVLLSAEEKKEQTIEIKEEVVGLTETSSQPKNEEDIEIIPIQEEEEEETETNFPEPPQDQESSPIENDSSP
Test: phage clone on Raji or Daudi cells with or without 1 mg/mL Rituxan

binding result: binds
B1: CD20 binding sequence 3 (designed binder)
chain: CLPGEFRCRGTSICIPPSWVCDGVDDCGDGSDEALEHCGDSHILPFSTPGPST

binding result: binds
B2: CD20 binding sequence 5 (designed binder)
chain: B1 chain
